# Measurements: ChEMBL document CHEMBL4888484, “Replenishing the malaria drug discovery pipeline: Screening and hit evaluation of the MMV Hit Generation Library 1 (HGL1) against asexual blood stage Plasmodium falciparum ,using a nano luciferase reporter read-out” (2022)
# About 540 (0.36%) of roughly 150,000 compounds showed an effect of 50% or more. This is one part of the list.
# Test system: Plasmodium falciparum
# Assay: Primary screen in NF54 nanoGlo assay, in single point, at 2uM, 72h; a lower Z score goes with more inhibition
# Format: functional, Erythrocyte
# Conditions: timepoint 72 hour
SMILES,% Inhibition [%],Z score
N#Cc1cc2ccccc2nc1N1CCO[C@H](c2ccccc2)C1,7,-0.96
Cn1c(=O)c2c(ncn2Cc2cc(-c3ccccc3)on2)n(C)c1=O,-19,2.56
CC(C)(NC(=O)c1cncs1)[C@@H]1CCCCO1,-4,0.39
N#C[C@@H]1C(=O)N=C(N2CCc3ccccc32)NC12CCCCC2,9,-1.15
O=C(Cn1cc(C(F)(F)F)ccc1=O)NC1CC1,-10,1.65
C[C@@H](CCCO)NCc1cc(Br)ccc1Cl,-3,0.49
COC(=O)NCC(=O)N1CCN(c2ccc3[nH]ncc3c2)C(=O)C1,-10,1.95
CCc1noc(COCC(=O)N2CC(=O)Nc3ccccc32)n1,-1,0.18
Cc1cc(N2CC[C@]3(CCOC3)C2)n2ncnc2n1,5,-0.66
CCc1nn(C)cc1NC(=O)c1ccc(-c2ccco2)nc1C,-1,0.14
COc1ccc(CCC(=O)Nc2cc(-c3ccn[nH]3)sc2C)cc1,-10,1
Cc1ncc(C)c(N2CCC[C@H](c3nnc(CN4CCC(O)CC4)n3C)C2)n1,4,-0.52
C=C(C)C[C@H](C)C(=O)Nc1ccnc(CO)c1,-14,1.19
CCCCCOCC(=O)NCc1nc(C(F)(F)F)no1,-14,1.92
Cc1cccc(Nc2nc(C(=O)NCCc3ccco3)nc3ccccc23)c1,12,-2.2
O=C(Nc1ccc(F)cc1)C1=NCCCN1,-15,1.95
CCN(CC)C(=O)c1ccc(C)cc1C,-5,0.66
CCOc1ccccc1NC(=O)Cc1c(C)nc2nc(-c3ccccc3Cl)nn2c1C,1,-0.13
O=C(Nc1ccc2c(c1)OCCO2)N1CCC(F)(C(=O)N2CCOCC2)CC1,-9,1.21
Cn1cnnc1COc1ccc(Cc2ccccc2)cc1,2,-0.2
Cc1ccccc1C(=O)NCc1ccc(-c2ccco2)nc1,-3,0.55
CCOC(=O)c1csc(CN2CCOCC2)n1,8,-1.06

SMILES,% Inhibition [%],Z score
CCCc1nc(CN(CC)C(=O)c2cc(F)c(F)cc2Cl)no1,1,-0.12
Cc1c(Cl)cc(S(=O)(=O)N2CCC(n3ccnc3)CC2)cc1C(=O)O,-11,1.9
COc1ccc(CNCc2cccnc2N2CCCCCCC2)cc1F,-2,0.39
CC1(C)CC(=O)c2cn(-c3ccccc3)c(=O)c(C(=O)N3CCCCCC3)c2C1,1,-0.13
Cc1cc(C(=O)NC[C@H]2CCCN(Cc3cncn3C3CCCCC3)C2)c(C)o1,-11,2.24
Cc1ccc(C(=O)Nc2ccc(C)c(N3CCCS3(=O)=O)c2)o1,-25,4.78
CC(C)C/C=C(\CN1C[C@H](O)[C@@H](N(C)C)C1)c1ccccc1,1,-0.11
O=C(Nc1[nH]ncc1-c1cccc(Cl)c1)c1cccnc1,0,-0.09
Cc1cc(S(=O)(=O)Nc2[nH]nc(C)c2C#N)sc1Cl,3,-0.3
COc1ccc(CC(=O)N2CCN(c3cc(C)n4c(C)nnc4n3)CC2)cc1,-14,1.9
Cc1ccc(F)c(CCNC(=O)c2nc3n(n2)CCCN3)c1,-14,2
Cn1nc(C(=O)N2CCC[C@H](Oc3cccnn3)C2)ccc1=O,5,-0.53
COCCc1noc(-c2cnc(-c3ccccc3)s2)n1,-15,1.9
CCS(=O)(=O)N1CCC[C@H](c2nnc3n2CCN(C(=O)c2ccco2)C3)C1,-7,1.43
Cc1ccc(NS(C)(=O)=O)c(N)c1,-4,0.87
COc1cc2c(cc1OC)[C@H](CNC(=O)c1ccccc1C)N(Cc1cccc(F)c1)CC2,-6,0.8
Cc1cc(Br)cnc1N(C)CCNS(C)(=O)=O,-14,1.23
CN(Cc1cc(Cl)ccc1F)C(=O)C1CCS(=O)(=O)CC1,-17,3.5
COCCN(Cc1ccc(OC)c(OS(=O)(=O)C(C)C)c1)C(=O)CC(C)(C)C,1,-0.18
COC(=O)[C@H](CNS(=O)(=O)N1CCCC1)CC(C)C,-9,0.83
O=C(Nc1cccnc1)N1CCCCCC1,2,-0.25
Cn1nccc1CNS(=O)(=O)c1ccc2ccccc2c1,0,-0.04

SMILES,% Inhibition [%],Z score
CCc1nccn1CCCNC(=O)c1cc(C#N)c[nH]1,-13,2.46
C=CCN1CC(=O)N(c2c(C)cc(C)cc2C)C1=O,-4,0.59
COc1cccc(Cl)c1CC(=O)O[C@@H](C)CNS(C)(=O)=O,2,-0.26
CCc1cc(C(=O)Nc2sc3c(c2C#N)CCC3)no1,-8,0.96
NC(=O)COC(=O)c1ccc(Cl)cc1,-6,1.04
O=C(c1cc(C2CC2)nc2ccccc12)N(CCO)C1CCCCC1,-15,1.66
CC(=O)N[C@H]1C[C@H](c2nnc(COc3c(F)ccc(C)c3Cl)n2C)C1,-7,0.75
CN(C)C[C@H]1CN(C(=O)NCC(C)(C)c2ccccn2)CCO1,-1,0.11
O=C(NCc1ccncc1)[C@H]1CC(=O)N(Cc2cc(C(F)(F)F)cc(C(F)(F)F)c2)C1,3,-0.48
Cc1noc(CNC(=O)CC[C@@H]2C(=O)Nc3ccccc32)n1,-11,1.34
CCC(NC(=O)C1OCCC1C)(C(N)=O)C(C)C (centres undefined),-12,1.38
O=C(CN1CCC(Cn2c(C(F)(F)F)nc3ccccc32)CC1)N1CCc2ccccc21,4,-0.46
COc1ccccc1-c1cc2c(n(Cc3ccccc3)c1=O)CCN(C(=O)CCc1cnccn1)C2,-17,2.25
CCN=C(NCC)NCc1ccnc(C2CC2)c1,-14,1.95
CCCO[C@H]1CCCN(Cc2cc(C(=O)O)co2)CC1,3,-0.52
CCN1CC2(CCN(Cc3ccc(OCC(N)=O)c(Cl)c3)CC2)OC1=O,-1,0.16
COc1ccc(N(C(=O)C2CC2C)C2CCS(=O)(=O)C2)cc1 (centres undefined),-11,1.04
O=C(Nc1ccc2c(c1)NCCC2)c1ccoc1,-9,1.37
CN(C)S(=O)(=O)N1CCOC[C@H]1c1ncnn1-c1ccccc1,-2,0.3
Cc1cc(C)c(CN2CCC(CCC(=O)N3CCOCC3)CC2)cc1C,-8,0.7
Cc1cccc(N2CCN(S(=O)(=O)c3ccc4c(c3)C(C)(C)C(=O)N4C)C[C@@H]2C)c1,-13,1.7
CCn1nc(NC(=O)c2ccc(CN3C[C@H]4CC[C@H]3C4)cc2)cc1C,-2,0.32

SMILES,% Inhibition [%],Z score
Cc1ccccc1NC(=O)c1cccc(S(=O)(=O)NCC2(C)COC2)c1,9,-1.6
CC(C)c1nnc2n1[C@](C)(C(=O)NCc1cccnc1)COC2,-2,0.31
O=C(CC1CCCC1)N1CC(OCC(F)(F)F)C1,13,-1.96
O=C(NC1CC1)c1cc2n(n1)CCCN(Cc1ccc(F)cc1)C2=O,-6,0.73
O=C(CCN1C(=O)CCC1=O)NC1(Cc2ccc(Br)cc2)CCCCC1,-1,0.21
O=C(Nc1ccccc1Cl)N1Cc2cccn2-c2ccccc21,-2,0.25
CN(C)c1cccc(C(=O)Nc2cc(-c3ccccn3)no2)c1,-15,2.36
CN(CC1(c2ccc(Br)cc2)CC1)C(=O)Cc1ccn[nH]1,4,-0.41
COC(=O)N[C@@H](C)C(=O)N1CCC(c2nccn2CC2CC2)CC1,-5,1.03
Cc1ocnc1C(=O)NCC1(C)COC1,17,-1.95
O=S(=O)(c1ccc2c(c1)OCCO2)c1nc(-c2ccccc2Cl)oc1NCc1cccnc1,-3,0.33
O=C(NC[C@H]1CCCO1)c1csc(COc2cc(Cl)ccc2Cl)n1,-11,1.48
CCCN(CCC)C(=O)c1coc(CN2CCN(C[C@H](O)CN3CCOCC3)CC2)n1,-12,1.66
O=C(NCCOCC(F)(F)F)[C@H]1CC[C@@H](Nc2ccccn2)CC1,0,0.06
O=C(NCCc1c[nH]c2ccccc12)[C@@H]1CNC[C@H](C(=O)Nc2ccc(F)cc2)C1,-23,2.7
CCS(=O)(=O)N1CCc2nc(N3CCC(C)CC3)nc(Oc3ccc(F)cc3)c2C1,-3,0.51
CCN1CCN(c2nccc(-c3cnc4nc(-c5ccncc5)nn4c3C)n2)CC1,-8,1.17
CC(NC1CCNC1=O)c1ccc(S(C)(=O)=O)c(F)c1 (centres undefined),-3,0.27
CC[C@@H]1C(=O)N(c2nc(-c3ccc(OC)cc3)cs2)N=C1C,-9,1.61
CN(C)C(=O)[C@H](OC(=O)c1ccc2cn[nH]c2c1)c1ccccc1,-14,2.71
CCn1nccc1C(=O)N1CCC2(CC1)C[C@@H]2NC(=O)c1ccccc1,-1,0.06
